Laboratory results reported in article PMC12136788.
The list shows a part of the results.

T1: UNK ZnF1-3 (human, UniProt Q9C0B0 31-174)
T1 sequence: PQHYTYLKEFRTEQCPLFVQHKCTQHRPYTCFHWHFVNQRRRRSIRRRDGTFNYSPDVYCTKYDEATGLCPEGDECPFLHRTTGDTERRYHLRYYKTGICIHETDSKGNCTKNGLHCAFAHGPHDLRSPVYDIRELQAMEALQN

B1: 98688603_98690009_4302_CDS_ENSMUSG00000048154_ENSMUST00000023741|mouse|control|control (ssRNA)
RNA: GGGAGUUCUACAGUCCGACGAUCCACGAUACACUCCACACAACGCCAGCCCUUCAGCAGCAUCACCUUGGUGAUCUUGCUGUUGACACAGUACGGGUGAUAGCACUGAGAACACUGUGAACAGGCCAAGAGGUGGCCCUCAGCCAACAGAGGAUUGAGCAUCA
B2: chr17:23954396:23954397:+_ENSMUSG00000039218_ENSMUST00000088621|mus_hu|FALSE|FALSE (ssRNA)
RNA: GGGAGUUCUACAGUCCGACGAUCCUCUUUUGAUUCAGCAGUCUCCAAUCUACUCUGCCCCAAGAGAGAAUUCGAGUCCACUGUAGGAUAUGAAGAAGAGUCAGACUGGAACCUGCUCUGCUCAGGAGACAUUCCAGAUUUCAACAACAGAGGAUUGAGCAUCA
B3: chr17:62496765:62496766:-_ENSG00000108654_ENST00000581693|hu_mus|FALSE|FALSE (ssRNA)
RNA: GGGAGUUCUACAGUCCGACGAUCUGCUUGAUUAGCUUCCCGAAGCACAGAGAUAAGGUCGCUCACUUGCUUUAUGUUAUUAGGUGUAAAGAAAGUGUAUGCUGUGCCUGUUUUGGUACUGCGAGCAGUUCUUCCAAUUCGAUGCAACAGAGGAUUGAGCAUCA
B4: 36049889_36050009_883_3pUTR_ENSG00000180660_ENST00000379919|human|control|control (ssRNA)
RNA: GGGAGUUCUACAGUCCGACGAUCCGGAUUUUGCGCGCCGAGAGGUAGCCGGAGGCGGUAAUGAAUUCCACCCAGAGGGACAUGCUCCUCUUGCGCCCGUCGCUCAACUUCAGCACCGCGCAGCCGGGCAGUGAGCCAUCGUCCCAACAGAGGAUUGAGCAUCA
B5: chr15:103022988:103022989:-_ENSMUSG00000009575_ENSMUST00000118152|mus_hu|FALSE|FALSE (ssRNA)
RNA: GGGAGUUCUACAGUCCGACGAUCGGAGUGGUAAGCAAUGACAUAAAUCAAAACCAUUGAGGGUUGCUUUGAUCCUGAGACAGUCUGAGUCUGCUUCAAACCCAUGGGGAAAGGAACUUUAAUCCCCAACCUGCAGAGAGAAAUCAACAGAGGAUUGAGCAUCA
B6: chr11:29607870:29607871:+_ENSMUSG00000020458_ENSMUST00000102843|mus_mus|FALSE|FALSE (ssRNA)
RNA: GGGAGUUCUACAGUCCGACGAUCGAACUCUGGACUUGGCUCAGUGGAGAGCUUUGUUUCUUUAAUUAAAUCACAUGCAAUGGAUAUAUAAGGAGCUUCUGCUUCCUGAGCAGCUGCAUUAAAACUUUCAGGCUCUUUAAUUUCCAACAGAGGAUUGAGCAUCA
B7: chr15:11317090:11317091:-_ENSMUSG00000022241_ENSMUST00000022849|mus_hu|FALSE|FALSE (ssRNA)
RNA: GGGAGUUCUACAGUCCGACGAUCUUCUGUGAGGAUAGCAAUCAUUCUUUCCACUGAUCCCAAGAUGGCUCGAUGAACAAUCACUGGCCUUUUCUUAUCAUCACCAUCAUGGCUUACAUAAGUAAGAUUAAAUCUGAUGGGCAACAACAGAGGAUUGAGCAUCA
B8: chr15:68825492:68825493:+_ENSMUSG00000022332_ENSMUST00000022954|mus_mus|FALSE|FALSE (ssRNA)
RNA: GGGAGUUCUACAGUCCGACGAUCUAUCACCACGUCAAUGUACUUCUCUUCCUCCUUGCCUUCUCCCUUUUGAAACUUUUCUAUUUCUCGGUUCACCAAGCGCAGGGCGUGCGUGAAGGAGGGGUCCAGAGAGUCCUUCUCCGCCAACAGAGGAUUGAGCAUCA
B9: chr2:55199926:55199927:-_ENSG00000115310_ENST00000317610|hu_hu|FALSE|FALSE (ssRNA)
RNA: GGGAGUUCUACAGUCCGACGAUCCAUUUCAGAAAAUCUGCAUCAAUCUACACGGACCAUACACAGUGCACAAACUGAAAAGGGCUUUUUUUUUUUUUUUUCUAGCUCCACCAUCUCUGCAACUUGCCAAGAUGCGGCAAGACUCAACAGAGGAUUGAGCAUCA
B10: chr5:64942916:64942917:+_ENSG00000113597_ENST00000231526|hu_hu|motif|central (ssRNA)
RNA: GGGAGUUCUACAGUCCGACGAUCAGCAUUGGAGGCUGAAAGAUUUAAACGCUGAGAACUUGUCUGAAGAUCAGCUUUUACGGAUAUGUCUUUUACAACUUGAUUGCUAUCAUUAUGAACGCUGAUAUAACUGGAAAAGGUCUCCAACAGAGGAUUGAGCAUCA
B11: chr1:174973770:174973771:+_ENSG00000116161_ENST00000406752|hu_hu|motif|central (ssRNA)
RNA: GGGAGUUCUACAGUCCGACGAUCGAUUUCUGUCUCAAUCUUGGAUUUUUCAGCUGUAAGGGCAUCACGUACUCUUUUCCGGGUAGCCUUUUCCAGCAACACCUUUACCUCUUCUAGAUCUUUCUGUAGCUCUUCUGAAGCCAUCAACAGAGGAUUGAGCAUCA
B12: chr15:63447868:63447869:-_ENSG00000185088_ENST00000411926|hu_hu|motif|central (ssRNA)
RNA: GGGAGUUCUACAGUCCGACGAUCCCCUUCUGUGAGUCUGGCCUUUCCUCCUGUAGGCUGGCACAACACUGUUGAACAACCGGCACAAAGAACCACUGUCUGAGCAUGGCUGAAAACCGUGGUGAUCUUGUAGCAACCUGGACACAACAGAGGAUUGAGCAUCA
B13: chr4:71691144:71691145:-_ENSG00000132463_ENST00000545193|hu_mus|FALSE|FALSE (ssRNA)
RNA: GGGAGUUCUACAGUCCGACGAUCGGCCUUCCCACUGGAGCUGUAUUCCAUGGUGAUUCUCACAGGCUUCAGGGGAGCAAAGAAAUUUAUAAUGUCUUGGGCAUUGGCUUGGAAAGGCAAUCCUCUCAUGUGGACAAAAUGCAGCAACAGAGGAUUGAGCAUCA
B14: chr13:90237973:90237974:+_ENSMUSG00000012422_ENSMUST00000161568|mus_mus|FALSE|FALSE (ssRNA)
RNA: GGGAGUUCUACAGUCCGACGAUCAAGCACAUGUACAUAUAAGCAGCAAGAUUACAGUCAACAGACUCUGAAAAUUGAAAAUGGCAGACAUAGUGAGGCCGGUGCUGGUCCAGCCACAUCACCCUUCCGGGCCGGGGCGGAAGACAACAGAGGAUUGAGCAUCA
B15: 86681155_86682711_2440_CDS_ENSG00000145715_ENST00000456692|human|control|control (ssRNA)
RNA: GGGAGUUCUACAGUCCGACGAUCAUCUAAAAACAUGAUCAUACGAUGUUUGUUGCUUUUGAUGAAUGGAUUGACACCUUCCAUGUAGGGCUCCUUAGCUCCAAAUUCCACAAGAUUUGCUAAGUUCUGCACAGAUUUAGCCACCAACAGAGGAUUGAGCAUCA
B16: chr17:65740002:65740003:+_ENSG00000130935_ENST00000581375|hu_hu|hu_hu_hu_mus_False|48_88 (ssRNA)
RNA: GGGAGUUCUACAGUCCGACGAUCAACAAAUCUUUCUUCCCUGGACGCAAGAGUUCAUUCAUAUUAAAAAAAAUAUAUAUCCAUCAAGGAGAAUUGAGUGGCCACACCUUUACUCCCAGCACUUUGGGAGGUGGAUCUCUGAGUCAACAGAGGAUUGAGCAUCA
B17: chr12:49579495:49579496:-_ENSG00000167552_ENST00000550767|hu_hu|FALSE|FALSE (ssRNA)
RNA: GGGAGUUCUACAGUCCGACGAUCGGCUCCAUCAAAUCUCAGGGAAGCAGUGAUGGAGGACACAAUUUGACCUAUUAACCUAUUCAGGUUAGUAUAGGUUGGACGCUCAAUAUCGAGGUUUCUACGACAGAUGUCAUAGAUGGCCAACAGAGGAUUGAGCAUCA
B18: chr17:65740002:65740003:+_ENSG00000130935_ENST00000581375|hu_hu|hu_hu_hu_mus_False|8_28 (ssRNA)
RNA: GGGAGUUCUACAGUCCGACGAUCAACAAAUCUUUCUUCCCUGGACGAACAGGAAGAUUCAUAUUAAAAAAAAUAUAUAUCCAUCAAGUUAGGUGUGGUGGCCACACAGAGCUCCAGAGCACUUUGGGAAUAUAAUCUCUGAGUCAACAGAGGAUUGAGCAUCA
B19: chr2:5814250:5814251:-_ENSMUSG00000025816_ENSMUST00000102981|mus_hu|mus_mus_mus_hu_True|18_28 (ssRNA)
RNA: GGGAGUUCUACAGUCCGACGAUCUUCCUUUCCGGUUUCUGAAUUUCUGGUAGAACUGCACAGAAUGGUUUGAUAACUUCUAAAAAUUUGAUGCCCAUGGCUGCUGCUCAGCACACCCGGCGGGCACCCGCGGCCUCGGCGCUGCAACAGAGGAUUGAGCAUCA
B20: chr2:48026839:48026840:+_ENSG00000116062_ENST00000540021|hu_hu|hu_hu_hu_mus_False|38_68 (ssRNA)
RNA: GGGAGUUCUACAGUCCGACGAUCAUAGUGAGCCACUAGCGUCCUAAAUCUGGAACAGUGGCGGUCAUCUGAAAACUGGCCGAUGAAAAACUUGCCCAGUGAAGUAUCCACAAAGCAAACACCAUACACACGAGUGUGACCAGACAACAGAGGAUUGAGCAUCA
B21: chr1:213186598:213186599:-_ENSG00000174606_ENST00000366962|hu_mus|FALSE|FALSE (ssRNA)
RNA: GGGAGUUCUACAGUCCGACGAUCAAACUGCGUUCCAGACUCAAACAGAAAAGGUGGUCUACAGUUCAAUGAGAAAUGCCUGCUACUGAAGUAUGGGUAAGGCGCACGGGAGUAAUGUCCUGGCCACCUCAGACAACUGGAAAUCAACAGAGGAUUGAGCAUCA
B22: 91712666_91712786_8636_CDS_ENSG00000127914_ENST00000356239|human|control|control (ssRNA)
RNA: GGGAGUUCUACAGUCCGACGAUCGAUUAUUUCAGUAACUUCUUCUGAGGAACAUUCACUCUGUAAAUUAAUUUGUAUUCCUGCAUUUUUAACAAGAAUUUGUGGAGUCUGAUUGCUGCUACUGAUCUUCAGAGUCCCAUCUGUCAACAGAGGAUUGAGCAUCA

Molecular target: T1, UNK ZnF1-3
Test: nsRBNS (natural sequence RNA bind-n-seq); RBNS binding buffer (assumed for nsRBNS): 25 mM Tris pH 7.5, 150 mM KCl, 3 mM MgCl2, 0.01% Triton X-100, 500 ug/ml BSA, 20 U/ml SUPERase-In, 4 C; UNK is unkempt and MSI1 is Musashi-1; names of the RNAs are library labels; protein concentration not given here; high values mean tight binding

| Binder | binding signal [enrichment R] |
| --- | --- |
| B1 | 0.873 |
| B2 | 0.817 |
| B3 | 0.527 |
| B4 | 1.07 |
| B5 | 0.782 |
| B6 | 1.3 |
| B7 | 1.26 |
| B8 | 0.954 |
| B9 | 1.44 |
| B10 | 1.48 |
| B11 | 0.406 |
| B12 | 1.3 |
| B13 | 1.29 |
| B14 | 1.78 |
| B15 | 0.788 |
| B16 | 1.65 |
| B17 | 0.76 |
| B18 | 1.83 |
| B19 | 0.895 |
| B20 | 1.1 |
| B21 | 1.25 |
| B22 | 0.835 |
